# Assay results published in paper PMC10668032.
# The other results are listed elsewhere or left out. At the low end of the ranking the order means little.
# Target: SIX1-Q177R homeodomain (UniProt Q15475)
# Assay: universal protein binding microarray
# Conditions: Universal all-10-mer PBM (8x60K, AMADID 030236), 300 nM GST-tagged protein, Alexa Fluor 488 anti-GST; buffer, salt, pH and temperature not stated; high values mean tight binding; most listed sequences are background and not binding sites; double strand, one strand shown
row,Sequence,binding signal
1,ACGAGAGA,-0.0551 E-score
2,GCAGTTTA,-0.191 E-score
3,AATCGGCG,-0.17 E-score
4,GAGCCCTC,-0.222 E-score
5,CCTAAGAG,0.118 E-score
6,ATCTTTGG,-0.154 E-score
7,ACATATCG,0.0902 E-score
8,CCATTCAC,0.0737 E-score
9,CGGTTTGA,-0.106 E-score
10,CAATACTG,-0.0122 E-score
11,AGCCAAAC,-0.157 E-score
12,GAACTGAC,-0.129 E-score
13,ATATAACA,0.197 E-score
14,AAGTAATG,-0.076 E-score
15,ATCCCGCC,0.0191 E-score
16,AACAGTGC,0.00491 E-score
17,AGTCCCAC,-0.0572 E-score
18,AGGGGGGG,0.138 E-score
19,CAACCCCC,0.242 E-score
20,CCGCAACG,-0.276 E-score
21,ATAGGTAC,0.166 E-score
22,CTGAGACA,0.0291 E-score
23,CACAAACG,-0.0025 E-score
24,ACAGCGTC,0.061 E-score
25,AAGTAGTA,0.00649 E-score

row,Sequence,binding signal
1,ATTGCGCA,-0.102 E-score
2,GTTAGGGA,0.00751 E-score
3,CCATGACG,-0.0625 E-score
4,CAGGACTA,-0.0996 E-score
5,CATGACAG,-0.219 E-score
6,ACCGCGGG,0.241 E-score
7,TCCCAGCA,-0.124 E-score
8,CGAGGGAC,-0.0551 E-score
9,TCTATTCA,-0.17 E-score
10,CCGTATGA,0.0416 E-score
11,AGTGGACG,-0.0169 E-score
12,AAGGACGG,-0.103 E-score
13,ATTTGTCG,-0.235 E-score
14,CGAGCTGA,-0.0571 E-score
15,CGTCTATC,0.13 E-score
16,ATCCATTG,0.00378 E-score
17,ACCTTTCT,0.115 E-score
18,AGTCAACG,-0.0933 E-score
19,GTACGCTA,0.153 E-score
20,CCAAAACG,-0.119 E-score
21,AGCGTGGG,-0.0287 E-score
22,AAGGAACT,-0.265 E-score
23,CGAAATGC,-0.163 E-score
24,AATGCACC,0.162 E-score
25,ATTTTCCC,-0.221 E-score

row,Sequence,binding signal
1,AGATTCTG,-0.0803 E-score
2,CTAGGAGC,-0.125 E-score
3,ATAGGTAA,-0.0324 E-score
4,CACCGCCG,0.375 E-score
5,AACGCGAG,-0.0866 E-score
6,CAACAAGA,-0.111 E-score
7,CACAGCGA,0.0566 E-score
8,CTCCTCGA,-0.126 E-score
9,TAGTCATA,-0.125 E-score
10,TCGCACCA,0.177 E-score
11,CCTACAGA,0.0349 E-score
12,GTCCCTGA,0.0504 E-score
13,CCTGGTCA,0.0409 E-score
14,CGGTTTCA,0.0738 E-score
15,CAACTGCG,-0.111 E-score
16,CACCTCGC,0.203 E-score
17,CCGCCCCC,0.117 E-score
18,ATCGGCAA,-0.095 E-score
19,ACGTGCCA,-0.0195 E-score
20,GGATGGCC,0.0504 E-score
21,CCCTTGAC,0.176 E-score
22,TTATGGAA,-0.316 E-score
23,ACGCAGAA,-0.0908 E-score
24,TCGTTAGA,-0.258 E-score
25,ATGACGGA,-0.127 E-score

row,Sequence,binding signal
1,CCAAGGTA,-0.0239 E-score
2,ACATCTGC,-0.206 E-score
3,CTTTCTAC,0.136 E-score
4,AGCTGGAC,0.037 E-score
5,ATGGGAGC,-0.149 E-score
6,AGCCTCTA,-0.177 E-score
7,CCACTCGA,-0.011 E-score
8,CCAGTAGG,-0.0963 E-score
9,ACTGCCGA,0.119 E-score
10,AATATCAA,-0.0692 E-score
11,AGCTGCTG,-0.195 E-score
12,CAAAATGA,-0.19 E-score
13,GACAGATA,-0.00448 E-score
14,AAAGAAAC,-0.0719 E-score
15,CACGCATG,0.126 E-score
16,CCCATCCC,0.125 E-score
17,CTAGGGGC,-0.102 E-score
18,ACGTCCGG,-0.0291 E-score
19,AAATATTC,-0.0168 E-score
20,GGGCAAAA,-0.107 E-score
21,AAACCGCA,-0.14 E-score
22,CCGGTATC,0.284 E-score
23,CGTCGCAA,-0.262 E-score
24,ATCCAATG,-0.025 E-score
25,CCGCTTGA,0.0689 E-score

row,Sequence,binding signal
1,AAGACTAA,0.0261 E-score
2,ACTCTCGC,-0.0845 E-score
3,TATTCTGA,-0.0987 E-score
4,GAGCCATC,-0.128 E-score
5,CTAGCTGA,-0.15 E-score
6,CGCAGCTC,-0.0248 E-score
7,TACCGGAA,-0.0409 E-score
8,TGGATCAA,0.147 E-score
9,GAGACACA,0.241 E-score
10,AGTCGTGC,-0.042 E-score
11,AAGTAATC,0.163 E-score
12,GATATGCA,-0.0875 E-score
13,CTGGCGCA,0.0234 E-score
14,GCTCTTAC,0.0757 E-score
15,CGGGGTGA,0.166 E-score
16,AGCGTCAA,0.0409 E-score
17,CTCGGTGA,-0.174 E-score
18,GCGGCGTA,0.0464 E-score
19,TATCATGA,-0.0594 E-score
20,AGGTCTTA,-0.0436 E-score
21,ATCTCGCC,-0.335 E-score
22,TAATATAA,0.0896 E-score
23,AAATAGGG,-0.0248 E-score
24,GGAAGTAC,-0.107 E-score
25,AAATACGT,-0.241 E-score

row,Sequence,binding signal
1,ACTATTCA,0.000625 E-score
2,AGCCAAAT,-0.265 E-score
3,CCGTGCTA,0.111 E-score
4,ACGCCAGT,0.123 E-score
5,CCCTCGGA,0.19 E-score
6,GGGGCAGA,0.0913 E-score
7,CAGTCGAC,-0.115 E-score
8,CAAGAGCG,-0.191 E-score
9,CTTCACAA,-0.117 E-score
10,AACTGTGA,-0.0487 E-score
11,CCACCGAG,0.0196 E-score
12,GAATTATA,-0.0433 E-score
13,ATAAAGAA,-0.0439 E-score
14,ACGGGAAC,-0.0544 E-score
15,AACCTAGG,-0.0907 E-score
16,GAAGGTCC,-0.245 E-score
17,GGACACAA,0.18 E-score
18,AGTCCTCA,-0.314 E-score
19,TCCGCGCA,0.0518 E-score
20,ACCGAACC,0.197 E-score
21,AGAAATTG,-0.173 E-score
22,CCGCATTA,0.0732 E-score
23,AGCCGACG,0.0469 E-score
24,CGTAGACA,0.0345 E-score
25,CTAGGGCC,-0.25 E-score

row,Sequence,binding signal
1,CACACGCC,0.252 E-score
2,ATTATTAC,0.0442 E-score
3,AGCTCTGA,-0.0246 E-score
4,TAATATGA,-0.133 E-score
5,TATTGGCA,0.0118 E-score
6,CTAGTCAG,-0.189 E-score
7,AGACTTGG,-0.142 E-score
8,AGCACGTA,0.109 E-score
9,GGGACTTA,-0.15 E-score
10,ACACCGCC,0.474 E-score
11,GCAGGATA,0.121 E-score
12,CCAAGGAA,-0.115 E-score
13,GTATCGTA,0.18 E-score
14,ACCCGATA,0.237 E-score
15,CAGGTATG,-0.0649 E-score
16,CCACATTA,-0.0817 E-score
17,AATTTGAG,-0.112 E-score
18,GGACATCA,-0.259 E-score
19,CGTCCTGC,0.00934 E-score
20,GCCGATAA,-0.0435 E-score
21,GCAGCCCC,-0.101 E-score
22,AACAGCTC,-0.222 E-score
